Data taken from publication PMC9317961, “Deafness-related protein PDZD7 forms complex with the C-terminal tail of FCHSD2” (Biochemical Journal, 2022).
Results are given in words; binding and its absence hold for the method and conditions named. For some of these results: Binding seen in cells or lysates may run through a third protein. Some results given as binding are weak or reduced against the parent protein; the word gives no strength. For some of these results: Tags and fused reporters may be left off the sequences shown.

What was measured:
Myc-PDZD7 (mouse) = biological target: T1, Myc-PDZD7 (mouse) (UniProt E9Q9W7); assay: co-IP; HEK293T cells transfected with EGFP- and Myc-fusion proteins; lysate (150 mM NaCl, 50 mM Tris pH 7.5, 1% Triton X-100) on immobilized anti-Myc antibody, 4°C, 2 h; blot with anti-Myc or anti-GFP
T1 sequence: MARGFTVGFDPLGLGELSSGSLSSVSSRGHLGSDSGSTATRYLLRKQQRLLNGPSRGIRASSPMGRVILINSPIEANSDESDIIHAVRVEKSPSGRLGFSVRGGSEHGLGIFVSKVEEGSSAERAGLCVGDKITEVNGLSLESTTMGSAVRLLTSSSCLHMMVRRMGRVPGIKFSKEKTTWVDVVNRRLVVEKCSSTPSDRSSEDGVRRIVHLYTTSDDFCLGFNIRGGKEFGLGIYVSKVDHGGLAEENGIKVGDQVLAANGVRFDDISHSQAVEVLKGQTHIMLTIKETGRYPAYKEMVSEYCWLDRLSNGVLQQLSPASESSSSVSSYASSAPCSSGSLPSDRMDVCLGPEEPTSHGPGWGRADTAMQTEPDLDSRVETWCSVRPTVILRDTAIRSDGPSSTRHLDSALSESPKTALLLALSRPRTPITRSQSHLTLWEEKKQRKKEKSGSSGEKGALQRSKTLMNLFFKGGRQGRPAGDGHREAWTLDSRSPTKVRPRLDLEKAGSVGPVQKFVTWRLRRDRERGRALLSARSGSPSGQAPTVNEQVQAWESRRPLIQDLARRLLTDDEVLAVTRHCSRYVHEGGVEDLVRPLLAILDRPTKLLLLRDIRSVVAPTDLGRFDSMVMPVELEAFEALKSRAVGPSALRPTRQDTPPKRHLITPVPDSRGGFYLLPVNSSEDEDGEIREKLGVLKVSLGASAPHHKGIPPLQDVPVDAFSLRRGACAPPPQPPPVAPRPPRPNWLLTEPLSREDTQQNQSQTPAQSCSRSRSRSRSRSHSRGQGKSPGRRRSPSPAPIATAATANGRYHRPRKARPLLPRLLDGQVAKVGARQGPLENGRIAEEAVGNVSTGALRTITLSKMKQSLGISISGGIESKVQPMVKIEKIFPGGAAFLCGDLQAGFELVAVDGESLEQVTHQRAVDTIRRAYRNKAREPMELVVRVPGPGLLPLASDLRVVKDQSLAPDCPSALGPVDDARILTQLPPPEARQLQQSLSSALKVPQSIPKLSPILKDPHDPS

Myc-FCHSD2 = biological target: T2, Myc-FCHSD2 (UniProt Q3USJ8); assay: as above
T2 sequence: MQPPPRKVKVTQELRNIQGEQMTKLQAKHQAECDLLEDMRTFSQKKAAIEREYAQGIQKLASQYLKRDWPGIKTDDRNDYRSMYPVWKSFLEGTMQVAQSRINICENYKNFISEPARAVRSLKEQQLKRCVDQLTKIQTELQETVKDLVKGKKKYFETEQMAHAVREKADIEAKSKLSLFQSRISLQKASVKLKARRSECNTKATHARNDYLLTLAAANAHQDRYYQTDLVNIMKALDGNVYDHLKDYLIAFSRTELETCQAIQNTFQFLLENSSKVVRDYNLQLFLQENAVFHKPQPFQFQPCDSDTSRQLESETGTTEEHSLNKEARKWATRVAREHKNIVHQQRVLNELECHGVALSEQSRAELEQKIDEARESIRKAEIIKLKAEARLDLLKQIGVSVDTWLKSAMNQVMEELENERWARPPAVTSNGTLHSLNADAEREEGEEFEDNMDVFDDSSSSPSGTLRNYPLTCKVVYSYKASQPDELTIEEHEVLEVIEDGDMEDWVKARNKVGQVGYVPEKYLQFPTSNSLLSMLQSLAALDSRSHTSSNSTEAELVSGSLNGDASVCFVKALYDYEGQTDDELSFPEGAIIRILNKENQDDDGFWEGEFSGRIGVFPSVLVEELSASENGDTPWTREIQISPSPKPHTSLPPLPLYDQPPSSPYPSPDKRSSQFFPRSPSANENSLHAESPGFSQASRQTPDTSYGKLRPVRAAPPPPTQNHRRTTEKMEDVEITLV

[1] = biological target: T3, PDZD7 PDZ1 (a.a. 81-167) (mouse) (UniProt E9Q9W7); assay: condition: ~500 μM in the syringe, ~50 μM in the cell; ITC; MicroCal iTC200, 25°C; ~500 μM protein in the syringe titrated into ~50 μM partner in the cell; one-site binding model; both purified
T3 sequence: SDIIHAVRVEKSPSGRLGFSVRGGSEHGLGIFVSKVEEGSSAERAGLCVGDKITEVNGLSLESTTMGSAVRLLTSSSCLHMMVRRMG

[2] = biological target: T4, PDZD7 PDZ2 (a.a. 202-319) (mouse) (UniProt E9Q9W7); assay: as above
T4 sequence: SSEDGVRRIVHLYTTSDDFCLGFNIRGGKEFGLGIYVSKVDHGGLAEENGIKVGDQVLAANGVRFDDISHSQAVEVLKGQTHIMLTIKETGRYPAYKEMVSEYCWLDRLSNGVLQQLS

PDZD7 PDZ3 H920A (mouse) = biological target: T5, PDZD7 PDZ3 H920A (mouse) (UniProt E9Q9W7); assay: as above
T5 sequence: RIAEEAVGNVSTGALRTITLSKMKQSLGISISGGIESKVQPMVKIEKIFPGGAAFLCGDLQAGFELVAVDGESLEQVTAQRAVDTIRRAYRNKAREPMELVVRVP

PDZD7 PDZ3 R928A (mouse) = biological target: T6, PDZD7 PDZ3 R928A (mouse) (UniProt E9Q9W7); assay: as above
T6 sequence: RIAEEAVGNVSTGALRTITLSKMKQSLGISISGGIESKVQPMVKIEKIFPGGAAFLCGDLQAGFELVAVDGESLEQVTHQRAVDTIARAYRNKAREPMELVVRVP

[3] = biological target: T7, Whirlin NPDZ12 (a.a. 33-377, including NTD, PDZ1, and PDZ2) (UniProt Q9P202); assay: as above
T7 sequence: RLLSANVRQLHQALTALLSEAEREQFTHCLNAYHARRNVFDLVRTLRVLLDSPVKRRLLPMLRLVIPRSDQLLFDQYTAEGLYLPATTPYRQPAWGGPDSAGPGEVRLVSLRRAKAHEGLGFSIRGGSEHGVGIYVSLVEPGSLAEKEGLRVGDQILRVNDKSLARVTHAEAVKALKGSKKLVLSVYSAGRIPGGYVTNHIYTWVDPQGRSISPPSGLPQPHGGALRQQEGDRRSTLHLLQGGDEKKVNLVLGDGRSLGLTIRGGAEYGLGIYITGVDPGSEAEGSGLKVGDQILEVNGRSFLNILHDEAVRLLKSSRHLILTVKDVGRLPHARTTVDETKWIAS

[4] = biological target: T8, Whirlin PDZ3 (a.a. 816-907) (UniProt Q9P202); assay: as above
T8 sequence: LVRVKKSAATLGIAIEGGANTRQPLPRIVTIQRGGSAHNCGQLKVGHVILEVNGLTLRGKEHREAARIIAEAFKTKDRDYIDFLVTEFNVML

Trx-tagged FCHSD2 tail = Trx-tagged FCHSD2 tail (UniProt Q3USJ8); assay: SEC-MALS; Superose 12 10/300 GL column, miniDAWN and Optilab detectors; ~300 μl of 50 μM protein loaded; Trx-tagged proteins alone and mixed; both purified
Trx-tagged PDZD7 PDZ3 = biological target: T9, Trx-tagged PDZD7 PDZ3 (mouse, UniProt E9Q9W7 842-946); assay: as above
T9 construct: As used in SEC-MALS, thioredoxin tag kept; monomer by SEC-MALS; also called Trx-PDZD7 PDZ3; source: E. coli BL21 (DE3), purified (nickel-NTA, SEC)
T9 sequence (looked up): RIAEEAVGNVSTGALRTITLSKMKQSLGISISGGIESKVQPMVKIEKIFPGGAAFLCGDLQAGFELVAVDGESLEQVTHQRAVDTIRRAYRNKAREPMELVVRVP

[5] = biological target: T10, PDZD7 PDZ3 (a.a. 842-946) (mouse, UniProt E9Q9W7 842-946); assay: condition: ~500 μM in the syringe, ~50 μM in the cell; ITC; MicroCal iTC200, 25°C; ~500 μM protein in the syringe titrated into ~50 μM partner in the cell; one-site binding model; both purified
T10 construct: As used in ITC; also called WT PDZD7 PDZ3; source: E. coli BL21 (DE3), purified (nickel-NTA, SEC); not shown: Trx (from the vector pET.32M.3C)
T10 sequence (looked up): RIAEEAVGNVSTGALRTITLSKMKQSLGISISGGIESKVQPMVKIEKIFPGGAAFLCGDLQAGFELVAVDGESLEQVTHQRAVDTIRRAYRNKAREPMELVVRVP

B1: GFP-FCHSD2 (protein, UniProt Q3USJ8 1-740)
chain: MQPPPRKVKVTQELRNIQGEQMTKLQAKHQAECDLLEDMRTFSQKKAAIEREYAQGIQKLASQYLKRDWPGIKTDDRNDYRSMYPVWKSFLEGTMQVAQSRINICENYKNFISEPARAVRSLKEQQLKRCVDQLTKIQTELQETVKDLVKGKKKYFETEQMAHAVREKADIEAKSKLSLFQSRISLQKASVKLKARRSECNTKATHARNDYLLTLAAANAHQDRYYQTDLVNIMKALDGNVYDHLKDYLIAFSRTELETCQAIQNTFQFLLENSSKVVRDYNLQLFLQENAVFHKPQPFQFQPCDSDTSRQLESETGTTEEHSLNKEARKWATRVAREHKNIVHQQRVLNELECHGVALSEQSRAELEQKIDEARESIRKAEIIKLKAEARLDLLKQIGVSVDTWLKSAMNQVMEELENERWARPPAVTSNGTLHSLNADAEREEGEEFEDNMDVFDDSSSSPSGTLRNYPLTCKVVYSYKASQPDELTIEEHEVLEVIEDGDMEDWVKARNKVGQVGYVPEKYLQFPTSNSLLSMLQSLAALDSRSHTSSNSTEAELVSGSLNGDASVCFVKALYDYEGQTDDELSFPEGAIIRILNKENQDDDGFWEGEFSGRIGVFPSVLVEELSASENGDTPWTREIQISPSPKPHTSLPPLPLYDQPPSSPYPSPDKRSSQFFPRSPSANENSLHAESPGFSQASRQTPDTSYGKLRPVRAAPPPPTQNHRRTTEKMEDVEITLV
For B1, the binding (Myc-PDZD7 (mouse)) was “binds”.

B2: GFP-PDZD7 PDZ3 (a.a. 842-946) (domain or fragment, UniProt E9Q9W7 842-946)
chain: RIAEEAVGNVSTGALRTITLSKMKQSLGISISGGIESKVQPMVKIEKIFPGGAAFLCGDLQAGFELVAVDGESLEQVTHQRAVDTIRRAYRNKAREPMELVVRVP
With B2 the binding (Myc-FCHSD2) was “binds”.

B3: FCHSD2 tail (a.a. 729-740) (peptide, UniProt Q3USJ8 729-740, looked up)
chain: TEKMEDVEITLV
notes: As used in ITC; also called WT FCHSD2 tail; source: E. coli BL21 (DE3), purified (nickel-NTA, SEC)
For B3, the binding [1] was “no binding”, the binding [2] was “no binding” and the binding (PDZD7 PDZ3 H920A (mouse)) was “no binding”. For the same binder, the binding (PDZD7 PDZ3 R928A (mouse)) was “no binding”, the binding [3] was “no binding” and the binding [4] was “no binding”.

B4: Trx-tagged FCHSD2 tail (peptide, UniProt Q3USJ8 729-740, looked up)
chain: TEKMEDVEITLV
notes: FCHSD2, residues 729-740; As used in SEC-MALS, thioredoxin tag kept; monomer by SEC-MALS; also called Trx-FCHSD2 tail; source: E. coli BL21 (DE3), purified (nickel-NTA, SEC)
B4 was tested, and the binding (Trx-tagged FCHSD2 tail) was “no binding (tested: 50 μM loaded)”.

B5: Trx-tagged PDZD7 PDZ3 (domain or fragment, UniProt E9Q9W7 842-946)
chain: RIAEEAVGNVSTGALRTITLSKMKQSLGISISGGIESKVQPMVKIEKIFPGGAAFLCGDLQAGFELVAVDGESLEQVTHQRAVDTIRRAYRNKAREPMELVVRVP
For B5, the binding (Trx-tagged PDZD7 PDZ3) was “no binding (tested: 50 μM loaded)”.

For TEKMEDVE (peptide, UniProt Q3USJ8 729-736) [FCHSD2 tail △PBM], the binding [5] was “no binding”.

In the case of TEKMEDVEIALV (peptide, UniProt Q3USJ8 729-740) [FCHSD2 tail T738A], the binding [5] is reported as “no binding”.

With TEKMEDVEITLR (peptide, UniProt Q3USJ8 729-740) [FCHSD2 tail V740R] the binding [5] was “no binding”.
